Measured values: PubChem BioAssay AID2147 (National Center for Advancing Translational Sciences (NCATS), 2009)
The campaign covered roughly 230,000 compounds. About 3,600 (1.6%) were called active. This list was built around the results that the source calls inconclusive (neither active nor inactive); the mix of calls is not that of the screen. The call rests on the fitted dose curve; in most records, active means well fitted inhibition curve with a large enough effect (not every such curve was filed as active); inconclusive means small, poorly fitted or top-dose-only effect, or another doubt; inactive means no such curve, though single readings can be large or run the other way. A potency beside an inconclusive call is a rough fit, not a confirmed value.

Molecular target: Lysine-specific demethylase 4E (Homo sapiens) (UniProt B2RXH2)
Experiment: qHTS Assay for Inhibitors of Human Jumonji Domain Containing 2E (JMJD2E)
Conditions: JMJD2E catalytic domain, FDH-coupled NADH fluorescence (FDH is formaldehyde dehydrogenase); series mostly up to 57.1 µM; activity change, negative = inhibition: at the top concentration
Further: nearly all actives have a fitted effect of over 50% in size.
Potency means the concentration at half of the fitted maximal effect; tags describe the fitted curve by direction and shape.
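Wherever activity change, negative = inhibition is given: 0% = wells with enzyme and -100% = buffer wells without enzyme.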

Chain of UniProt B2RXH2 (B2RXH2 whole entry, looked up, the tested form may be a part): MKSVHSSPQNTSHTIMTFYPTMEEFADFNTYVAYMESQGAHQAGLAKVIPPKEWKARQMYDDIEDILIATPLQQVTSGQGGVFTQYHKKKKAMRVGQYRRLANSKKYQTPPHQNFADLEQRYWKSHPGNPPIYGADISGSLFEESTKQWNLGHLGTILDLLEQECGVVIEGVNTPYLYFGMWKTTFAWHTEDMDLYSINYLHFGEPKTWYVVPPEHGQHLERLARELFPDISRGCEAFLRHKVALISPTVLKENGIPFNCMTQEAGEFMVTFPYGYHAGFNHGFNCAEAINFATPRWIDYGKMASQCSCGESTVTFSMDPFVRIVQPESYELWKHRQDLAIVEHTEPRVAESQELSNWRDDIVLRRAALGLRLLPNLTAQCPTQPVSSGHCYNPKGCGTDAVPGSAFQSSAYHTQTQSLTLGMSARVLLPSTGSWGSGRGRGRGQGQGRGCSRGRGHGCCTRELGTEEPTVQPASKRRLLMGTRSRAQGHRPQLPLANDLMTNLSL

| SMILES | Potency | activity change, negative = inhibition |
| --- | --- | --- |
| Cc1conc1NC(c1cccs1)c1ccc2cccnc2c1O (stereo not given) | inconclusive: 35.5 µM [inhibitor, single point] |  |
| COCCNc1cc(C)nc2cc(-c3ccc(C)cc3)nn12 | inconclusive: 31.6 µM [inhibitor, partial curve] |  |
| CCOc1cc(/C=N/Nc2nc(Nc3ccccc3)nc(N3CCCCC3)n2)ccc1OCC(=O)O |  | inactive: -12.1% |
| O=C(COC(=O)c1ccccc1O)NCCCc1ccccc1 |  | inactive: -9.05% |
| COc1ccc(/C=N/n2c(C)nnc2C)c(OC)c1OC | inconclusive: 7.08 µM [inhibitor, full curve, poor fit] |  |
| CC(=O)Nc1c(O)c2ccccc2[nH]c1=O | inconclusive: 25.1 µM [inhibitor, partial curve] |  |
| Cc1cnn(-c2nc(-c3cccs3)cc(C(F)(F)F)n2)c1 | inconclusive: 25.1 µM [inhibitor, partial curve] |  |
| COc1cc(O)c(NC(C)=O)c2nonc12 | inconclusive: 1.78 µM [inhibitor, partial curve] |  |
| Cc1ccc(C(C)C)c(OC(=O)/C=C/c2ccccc2)c1 |  | inactive: 5.52% |
| Cc1ccc(C)c(C(=O)COC(=O)c2cc(Cl)nc3ccccc23)c1 | inconclusive: 35.5 µM [inhibitor, single point] |  |
| COc1cc(/C=N/Nc2nc3ccccc3[nH]2)cc(Br)c1OCC(=O)N(C)C | inconclusive: 39.8 µM [inhibitor, single point] |  |
| CN=c1scc(C)n1/N=C/c1ccc(O)c(O)c1O | active: 7.94 µM |  |
| Cc1cc(CN(C)Cc2c(C(=O)N3CCCCCCC3)nc3ccc(Cl)cn23)n[nH]1 |  | inactive: -2.08% |
| COc1ccc(N=Cc2cc3c(cc2O)OC(N)=C(C#N)C3c2ccccc2)cc1 (stereo not given) | inconclusive: 22.4 µM [inhibitor, partial curve] |  |
| O=c1nc(N/N=C/c2c[nH]c3ccccc23)cn[nH]1 |  | inactive: -5.42% |
| CN(C)S(=O)(=O)c1ccc(C(=O)NCCN2C(=O)S/C(=C\c3cccnc3)C2=O)cc1 |  | inactive: 1.28% |
| O=C(CSc1nnc(CNC(=O)C23CC4CC(CC(C4)C2)C3)n1-c1ccc(F)cc1)Nc1ccc(F)cc1 |  | inactive: -5.19% |
| Cc1nc2c(C(=O)NCc3cccs3)cnn2c(C)c1Cc1ccccc1 | inconclusive: 35.5 µM [inhibitor, partial curve] |  |
| COc1ccc(Nc2nc(-c3ccccc3)nc3ccccc23)c(OC)c1 | inconclusive: 28.2 µM [inhibitor, single point] |  |
| COc1ccc(-n2ncc(S(=O)(=O)c3ccccc3)c2-c2ccc(Cl)cc2)cc1 | inconclusive: 39.8 µM [inhibitor, single point] |  |
| CCOC(=O)C(C(=O)OCC)C1N=C(N)N=C2Oc3ccccc3N21 (stereo not given) | inconclusive: 35.5 µM [inhibitor, single point] |  |
| C=CCn1c(CNc2ccc(C)cc2)nnc1SCC(=O)N/N=C/c1ccc(O)cc1O | active: 15.8 µM |  |
| Cn1c(=NC(=O)COc2ccccc2)sc2cccc(F)c21 |  | inactive: 6.61% |
| Cc1ccc(C(=O)NC(=S)Nc2ccccc2C(F)(F)F)cc1 |  | inactive: 2.49% |
| CC(C)Oc1ccc(NC(=O)c2ccncc2)cc1 |  | inactive: -1.98% |

| SMILES | Potency | activity change, negative = inhibition |
| --- | --- | --- |
| Nc1oc2ccccc2c(=O)c1C=O | inconclusive: 39.8 µM [inhibitor, single point] |  |
| COc1ccc(C(=O)Nc2cc(-c3nn4c(C)nnc4s3)ccc2C)cc1 |  | inactive: 6.05% |
| O=C(C1CCN(c2ccc(N3CCOCC3)nn2)CC1)N1CCN(c2ccc(F)cc2)CC1 | inconclusive: 31.6 µM [inhibitor, partial curve] |  |
| CCCc1cc(=O)oc2c(CN3CCN(C)CC3)c(O)c(Cl)cc12 | inconclusive: 3.16 µM [inhibitor, partial curve] |  |
| COCCNc1nc(-c2ccc(N(C)C)cc2)nc2ccccc12 | inconclusive: 28.2 µM [inhibitor, partial curve] |  |
| COc1cccc(CN(CC2CCCO2)S(=O)(=O)c2ccc(S(=O)(=O)N(C)C)cc2)c1 (stereo not given) |  | inactive: 9.26% |
| CCOc1ccc(NC(=O)N2CCC(n3nnc4ccccc43)CC2)cc1 | inconclusive: 17.8 µM [inhibitor, single point] |  |
| Cc1ccc(/C=C/C(=O)N2CCCC(C(N)=O)C2)o1 (stereo not given) |  | inactive: -3.77% |
| O=C1/C(=C\Nc2ccccc2)CCN1c1ncccn1 | inconclusive: 39.8 µM [inhibitor, single point] |  |
| CC(/C=N/NC(=O)c1cc(-c2ccccc2)nc2ccccc12)=C\c1ccco1 | inconclusive: 35.5 µM [inhibitor, single point] |  |
| C=CCSCC1Nc2cc(Cl)c(S(N)(=O)=O)cc2S(=O)(=O)N1 (stereo not given) | inconclusive: 39.8 µM [inhibitor, single point] |  |
| CCOc1ccc(N=C2Sc3nc4ccc(C)cc4cc3CN2CCOC)cc1 | inconclusive: 28.2 µM [inhibitor, single point] |  |
| COc1cc(O)c2c(c1)COC2=O | inconclusive: 35.5 µM [inhibitor, single point] |  |
| COc1cc(CCC(=O)N2CCN(c3ccc(N4CCOCC4)nn3)CC2)cc(OC)c1OC | inconclusive: 31.6 µM [inhibitor, partial curve] |  |
| O=C(CSc1nc(-c2ccc(F)cc2)nc2c1Cc1ccccc1O2)Nc1cccc(C(=O)O)c1 |  | inactive: -6.26% |
| Cc1cc2nn(-c3ccccc3)nc2cc1NC(=O)c1cccs1 | inconclusive: 31.6 µM [inhibitor, single point] |  |
| Cc1nn(-c2nc(-c3ccco3)cc(C(F)(F)F)n2)c(C)c1Cl | inconclusive: 3.55 µM [inhibitor, single point] |  |
| COc1ccc(O)c(N)c1 | inconclusive: 3.55 µM [inhibitor, partial curve] |  |
| Cc1ccc(OCCCCn2ccnc2)c([N+](=O)[O-])c1 |  | inactive: -29% |
| O=c1c(-c2ccc(O[C@@H]3O[C@H](CO)[C@@H](O)[C@H](O)[C@H]3O)cc2)coc2cc(O)cc(O)c12 | inconclusive: 35.5 µM [inhibitor, single point] |  |
| CCOC(=O)c1c(-c2ccc(C)s2)csc1N |  | inactive: 1.32% |
| Cc1ccc(C2=NN(C(=O)CCCC(=O)O)C(c3ccco3)C2)cc1 (stereo not given) |  | inactive: -6.82% |
| O=C(CCNC(=O)Cn1ccc2ccccc2c1=O)NCc1ccccn1 | inconclusive: 39.8 µM [inhibitor, single point] |  |
| Cc1ccc(S(=O)(=O)Nc2ccccc2C(=O)Nc2ccc(S(=O)(=O)Nc3nccc(C)n3)cc2)cc1 | inconclusive: 25.1 µM [inhibitor, partial curve] |  |
| S=c1[nH]nc(-c2ccccn2)n1/N=C/c1cccs1 |  | inactive: 5.43% |

| SMILES | Potency | activity change, negative = inhibition |
| --- | --- | --- |
| CCNc1nc(OC)nc(Oc2ccc(=O)n(-c3ccccc3)n2)n1 |  | inactive: 8.15% |
| COc1ccc(N/C=C2\C(=O)CCc3c2oc2cc(Cl)c(O)c(Cl)c32)cc1 |  | inactive: -20.6% |
| Cc1nnc(N2C(=O)C(O)=C(C(=O)c3ccco3)C2c2ccc(C(C)C)cc2)s1 (stereo not given) |  | inactive: -10.8% |
| Brc1ccc(-c2ccc(/C=N/Nc3nc(N4CCOCC4)nc(N4CCOCC4)n3)o2)cc1 | inconclusive: 28.2 µM [inhibitor, partial curve] |  |
| S=C1CCC(c2ccc(Br)cc2)=NN1c1ccccc1 |  | inactive: -4.87% |
| CCOC(=O)Oc1ccc(C(=O)OCCCN(C)C)cc1OC |  | inactive: -7.72% |
| Cc1c(NC2=C(Cl)C(=O)N(c3ccccc3Cl)C2=O)c(=O)n(-c2ccccc2)n1C |  | inactive: -10.4% |
| O=C(Nc1sc2c(c1C(=O)O)CCCCC2)c1ccccc1 |  | inactive: 3% |
| O=c1ccc(-c2nc3ccccc3n2Cc2ccccc2Cl)c[nH]1 | inconclusive: 31.6 µM [inhibitor, partial curve] |  |
| CCOC(=O)c1cnc(-c2ccccc2)nc1-c1ccccc1 |  | inactive: -11.5% |
| O=C(c1ccc(Cl)cc1)c1cc([N+](=O)[O-])ccc1N1CCOCC1 | inconclusive: 0.0316 µM [inhibitor, full curve] |  |
| Cc1ccc(C(C2=C(O)CC(C)(C)CC2=O)C2C(=O)CC(C)(C)CC2=O)o1 (stereo not given) |  | inactive: 2.14% |
| C=CCn1c(=O)[nH]c2cc(C(=O)N3CCN(c4ccc(C(C)=O)cc4)CC3)ccc2c1=O | inconclusive: 39.8 µM [inhibitor, single point] |  |
| Cc1cc(/C=C2/SC(=O)N(CC(=O)N3CCOCC3)C2=O)c(C)n1-c1ccccc1F | inconclusive: 35.5 µM [inhibitor, single point] |  |
| Cc1cc(O)c(/C=N/Nc2ccccc2)c(=O)o1 |  | inactive: -1.48% |
| O=C(Nc1ccc(F)cc1)c1ccccc1NS(=O)(=O)N1CCCC1 | inconclusive: 28.2 µM [inhibitor, single point] |  |
| COc1ccc(C2C(C(C)=O)=C(C)N=c3s/c(=C\c4cc(C)n(C)c4C)c(=O)n32)c(OC)c1 (stereo not given) |  | inactive: -6.73% |
| COc1ccc(-n2c(C)cc(C(=O)NC3CCCCC3)c2C)cc1 | inconclusive: 39.8 µM [inhibitor, single point] |  |
| CCC(C)(C)n1nnnc1C(c1cc2ccc(OC)cc2[nH]c1=O)N1CCc2ccccc2C1 (stereo not given) | inconclusive: 25.1 µM [inhibitor, partial curve] |  |
| N#CC1=C(N)Oc2n[nH]c(-c3cccs3)c2C1C1CCCCC1 (stereo not given) | inconclusive: 35.5 µM [inhibitor, single point] |  |
| Cc1cccc(CSc2nc(N)c(C#N)c(-c3cccs3)c2C#N)c1 | inconclusive: 35.5 µM [inhibitor, single point] |  |
| Cn1c(=O)c2c(nc(CN3CCN(C(=O)c4ccco4)CC3)n2CCc2ccccc2)n(C)c1=O |  | inactive: 0.411% |
| Cc1cc(C(=O)COC(=O)c2nc3nccc(C)n3n2)c(C)n1CC1CCCO1 (stereo not given) |  | inactive: -1.95% |
| O=C(NC1CC1)C1=C[C@H](c2ccccc2)C[C@H](OCc2ccc(CO)cc2)O1 |  | inactive: -4.44% |
| CCC1CCc2c(sc(NC(=O)C3CC=CCC3C(=O)O)c2C#N)C1 (stereo not given) |  | inactive: -3.44% |
